Patent publication US20180201654A1, “PEPTIDE INHIBITORS OF HAUSP DEUBIQUITINASE” (priority 2012, published 2018)
Where no end group is shown, it is not given here.

Target: full length HAUSP (Homo sapiens, UniProt Q93009)
Conditions: GST-vIRF4 constructs single transfected, GST-pulldown

## vIRF4^237-256: GST-vIRF4 construct of aa 237-256 transfected into cells ({GST}-DPPAPSTLTGPSDPHSSGAG; UniProt Q2HR73 237-256, looked up, fragment)
  interaction with full length HAUSP in vivo: little or no HAUSP binding
